From PubChem BioAssay AID686978 (National Center for Advancing Translational Sciences (NCATS), 2013)
Hit rate of the full screen: of about 420,000 compounds, about 64,000 (15%) were called active. The shares of active, inactive and inconclusive entries below differ from those in the screen. Calls follow the shape of the dose curve; as a rule, active = well fitted inhibition curve with a large enough effect; inconclusive = small, poorly fitted or top-dose-only effect; inactive = flat fitted curve, though single readings scatter. No potency is given beside an inconclusive call; the fits are too rough.

Experiment: qHTS for Inhibitors of human tyrosyl-DNA phosphodiesterase 1 (TDP1): qHTS in cells in absence of CPT; also: nearly all actives have a fitted effect of over 55% in size
Conditions: DT40 Tdp1-/- hTDP1 cells, no CPT, ATP luminescence, 48 h; activity change, negative = growth inhibition: at 46.2 µM (top of the series)
Summary of the method: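 Seeded 400 DT40-hTDP1 cells/well (vehicle DMSO, no 20 nM CPT); pinned compounds; ≥48 hr at 37 °C; CellTiter-Glo luminescence as viability measure.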
% is scaled to controls: 0 for no effect and ±100 for the full control effect; potency is read from the fitted curve at half-maximal effect; tags tell the direction and shape of the fitted curve.

Row | SMILES | activity change, negative = growth inhibition | Potency
1 | COc1ccc(NC(=O)CN(C)C(=O)c2ccc(COc3ccccc3)o2)cc1 | inactive: -20.8% | –
2 | COc1ccc(Cl)cc1C(=O)Nc1nc2ccccc2[nH]1 | inactive: -26% | –
3 | O=C(NC(=S)Nc1ccccc1)c1csnn1 | inactive: 8.91% | –
4 | CCOC(=O)c1cc(C#N)c(Nc2ccc(C)cc2)nc1C(F)(F)F | – | inconclusive [inhibitor, single point]
5 | CCN(CC)c1ccc(C=O)c(OC)c1 | inactive: -13.9% | –
6 | CCOC(=O)c1cc2ccccc2n1C1CCN(C)CC1 | – | active: 25.9 µM
7 | CCOc1ccc(S(=O)(=O)Nc2ccccc2C(=O)Nc2ccccc2N2CCOCC2)cc1 | – | inconclusive [inhibitor, single point]
8 | Cc1ccc(Cc2c(-c3ccccc3)nc3ccc(Br)cn23)cc1 | – | inconclusive [inhibitor, single point]
9 | N#CN=c1snc(-c2ccccc2Cl)n1-c1ccccc1Cl | – | inconclusive [inhibitor, single point]
10 | Cc1ccc(Cn2c(C(C)Nc3nc(-c4ccc(F)cc4)cs3)nc3cc(C(F)(F)F)ccc32)cc1 (stereo unspecified) | – | inconclusive [inhibitor, single point]
11 | CCn1c(CNC(=O)c2ccccc2Br)nnc1SCC(=O)NC1=NCCS1 | inconclusive: -33.1% [inhibitor] | –
12 | CCN(CC)c1ccc(C2NC(=O)c3ccccc3N2)cc1 (stereo unspecified) | – | active: 13 µM
13 | COc1cc(CN(C(=O)Nc2cccc(Cl)c2)c2ccccn2)cc(OC)c1OC | – | inconclusive [inhibitor, single point]
14 | Cc1ccccc1-c1nc(NCC2CC2)nc2ccsc12 | – | inconclusive [inhibitor, single point]
15 | CC1CCC(C(C)(C)O)CC2=C1CCC2C (stereo unspecified) | inactive: 18.4% | –
16 | CCN(c1ccc(OC)cc1)S(=O)(=O)c1ccc2c(c1)CC(C)N2C(=O)C1CC1 (stereo unspecified) | – | active: 18.4 µM
17 | CCNc1ncc2nc(CCc3ccccc3)c(=O)n(-c3ccccc3)c2n1 | – | inconclusive [inhibitor, partial curve]
18 | O=C(OCC(=O)N(CCc1ccccc1)Cc1ccccc1)c1ccccc1NCCO | – | inconclusive [inhibitor, single point]
19 | COc1ccccc1CCN1CCCC(CN(C)C(=O)c2ccoc2)C1 (stereo unspecified) | inactive: -0.363% | –
20 | CC(C)c1ccc(S(=O)(=O)N2CCN(CC(=O)Nc3ccccc3C(F)(F)F)CC2)cc1 | – | inconclusive [inhibitor, partial curve, poor fit]
21 | Cc1ccc(S(=O)(=O)N2CCOCC2)cc1NC(=O)CN1C(=O)CN(C)C1=O | inactive: 4.98% | –
22 | CCCc1nc(NCC2CCCO2)c2nnn(Cc3ccccc3)c2n1 (stereo unspecified) | – | inconclusive [inhibitor, single point]
23 | CCCc1nn2c(-c3ccccc3)nnc2o1 | – | inconclusive [inhibitor, partial curve, poor fit]
24 | CC(=O)c1ccccc1NS(=O)(=O)c1cccc2nsnc12 | inactive: 1.79% | –
25 | COc1ccc2c(=O)c3c(=O)n(-c4ccccc4)c(-c4ccco4)nc3oc2c1 | – | inconclusive [inhibitor, full curve]
26 | CCOc1ccccc1NC(=O)c1cc(-c2cc(OC)c(OC)c(OC)c2)nc2ccccc12 | – | active: 7.31 µM

Row | SMILES | activity change, negative = growth inhibition | Potency
27 | CC(C)CCNC(=O)c1ccc2nc(CCc3ccccc3)oc2c1 | inactive: -19.1% | –
28 | CC(C)Nc1nc2c(S(=O)(=O)c3cccc(Cl)c3)nnn2c2ccsc12 | inactive: -29.2% | –
29 | CN(C)c1ccc(/C=C/C(=O)c2ccccc2)cc1[N+](=O)[O-] | inactive: -29.5% | –
30 | CCOc1ccc(CCNC(=O)COC(=O)COc2ccc(C#N)cc2)cc1OCC | inactive: 7.74% | –
31 | CC[N+](CC)(CC)CC(=O)Nc1ccc(SC(F)F)cc1 | inactive: -19.3% | –
32 | CC(=O)c1cccc(NC(=O)CCn2nc(C)c(S(=O)(=O)N(C)C)c2C)c1 | inactive: -24.7% | –
33 | CC12CN3CC(C)(CN(C1)C3c1ccc([N+](=O)[O-])o1)C2 (stereo unspecified) | – | inconclusive [inhibitor, single point]
34 | CCC(C)(C)C1CCC(=NNC(=S)Nc2cccnc2)CC1 (stereo unspecified) | – | inconclusive [inhibitor, single point]
35 | O=C(COc1ccccc1F)NCCc1ccc2c(c1)OCCO2 | – | inconclusive [inhibitor, single point]
36 | N=C(N1CCCc2ccccc21)N1CCCc2ccccc21 | – | active: 20.6 µM
37 | COC(=O)c1sc(N2C(=O)c3oc4ccc(C)cc4c(=O)c3C2c2ccc(O)c(OC)c2)nc1C (stereo unspecified) | – | inconclusive [inhibitor, single point]
38 | CCCCC(CC)CNC(=O)CCCCn1c(=O)[nH]c2ccsc2c1=O (stereo unspecified) | – | inconclusive [inhibitor, single point]
39 | CC(C)(C(=O)N[C@H](CO)c1ccccc1)C(=O)N[C@H](CO)c1ccccc1 | inactive: 5.12% | –
40 | O=C1CSC(=S)N1/N=C/c1cccnc1 | – | inconclusive [inhibitor, single point]
41 | CN(C)CCOc1cc(Cl)cc(Cl)c1 | inactive: 9.33% | –
42 | COc1cc(Br)c(Br)c(Br)c1N | inactive: 1.9% | –
43 | Cc1ccc(S(=O)(=O)N(CC(=O)N2CCC(C)CC2)c2cccc(C)c2)cc1 | – | inconclusive [inhibitor, single point]
44 | N=C1C(c2nc3ccccc3s2)=C(O)CN1c1ccccc1 | – | inconclusive [inhibitor, single point]
45 | Cc1ccccc1Nc1nc(NCc2ccco2)c2ccccc2n1 | – | active: 3.66 µM
46 | CN(C)S(=O)(=O)c1ccc(C(=O)OCCn2cnc3c2c(=O)n(C)c(=O)n3C)cc1 | – | inconclusive [inhibitor, single point]
47 | CN(C)S(=O)(=O)c1ccc(NC(=O)COc2ncnc3sccc23)cc1 | inactive: 2.11% | –
48 | Cc1cc(SCc2cc(=O)[nH]c3ccccc23)nc2ccccc12 | – | inconclusive [inhibitor, single point]
49 | Cc1cc(C)n2c(Nc3ccc4c(c3)OCCO4)c(CC(C)C)nc2n1 | – | active: 11.6 µM
50 | CCOc1ccc2nc3cc(NCc4ccc(OC)cc4)ccc3c(N)c2c1 | – | active: 20.6 µM
51 | CCc1cc2ccc(C)cc2nc1SCC(=O)Nc1c[nH]c(=O)[nH]c1=O | inconclusive: -31.1% [inhibitor] | –
52 | CCOC(=O)C(=O)c1csc(NC(=O)COc2ccc(N(C)S(=O)(=O)c3ccc(F)cc3)cc2)n1 | inactive: -3.1% | –

Row | SMILES | activity change, negative = growth inhibition | Potency
53 | COc1ccccc1Cn1c(=S)[nH]c2cc(C(=O)N3CC(C)CC(C)C3)ccc2c1=O (stereo unspecified) | – | inconclusive [inhibitor, single point]
54 | CC(C)C(=O)N1CCN(c2ccccc2NC(=O)COc2ccc(C3CCCCC3)cc2)CC1 | – | inconclusive [inhibitor, single point]
55 | COC(=O)c1ccc(C(=O)OC)c(NC(=O)c2c(-c3ccccc3)noc2C)c1 | – | active: 6.51 µM
56 | Cc1ccc(/C=C/C(=O)OCc2nc(N)nc(Nc3ccccc3C)n2)o1 | – | inconclusive [inhibitor, single point]
57 | Cc1ccc(-c2nc3ccccc3[nH]2)cc1NC(=O)c1ccco1 | – | inconclusive [inhibitor, partial curve]
58 | Cc1cccc(N=C2NC(=O)c3cc([N+](=O)[O-])ccc32)c1 | inactive: 0.572% | –
59 | CN(c1ccc(C(=O)N2CCc3ccccc3C2)cc1)S(C)(=O)=O | – | inconclusive [inhibitor, partial curve, poor fit]
60 | COc1ccc(NC(=O)CC2COc3ccccc3O2)c(OC)c1 (stereo unspecified) | – | inconclusive [inhibitor, single point]
61 | CC(=O)c1ccc(NC(=O)/C(=C\c2ccccc2)NC(=O)c2ccco2)cc1 | inactive: -4.31% | –
62 | O=C(CSc1nn(-c2ccccc2)c(=S)s1)Nn1cnnc1 | inactive: -1.31% | –
63 | CCc1ccc(NC(=O)C2CCCN2S(=O)(=O)c2ccc3nc(-c4ccccc4)[nH]c3c2)cc1 (stereo unspecified) | – | active: 23.1 µM
64 | O=C(NCC1CCCO1)c1ccc(S(=O)(=O)Nc2ccccc2F)cc1 (stereo unspecified) | inconclusive: -30.3% [inhibitor] | –
65 | O=C(NCCCN1CCOCC1)C1Nc2ccc(OC(F)(F)F)cc2C2C=CCC12 (stereo unspecified) | – | inconclusive [inhibitor, single point]
66 | CP(=O)(Nc1cc(Cl)ccc1Cl)c1nc2c(s1)CCCC2 (stereo unspecified) | – | inconclusive [inhibitor, single point]
67 | CC(=O)Nc1ccc(NC(=O)c2c(C)nn(-c3ccccc3)c2Cl)cc1C | inactive: -10.5% | –
68 | Cc1csc2nc(COc3ccc(NC(=O)C(C)C)cc3)cc(=O)n12 | inactive: -27.1% | –
69 | O=C(COc1cccc2c1CCN(Cc1ccc(Br)cc1)C2=O)N1CCOCC1 | – | active: 23.1 µM
70 | COc1cccc(NC(=O)CN(C)C(=O)c2cc(-c3ccc(F)cc3)nc3ccccc23)c1 | – | inconclusive [inhibitor, single point]
71 | O=S1(=O)CCS(=O)(=O)C1c1ccccc1 | – | inconclusive [inhibitor, single point]
72 | O=C1[C@H]2[C@@H](c3ccc(F)cc3)N3C(=O)N(c4cccc(Br)c4)C(=O)[C@@]3(Cc3ccccc3)[C@H]2C(=O)N1C1CCCCC1 | inactive: -10.3% | –
73 | Cn1c(N)c(C(=O)c2cc(-c3ccccc3)nc3ccccc23)c(=O)n(C)c1=O | inconclusive: -32.6% [inhibitor] | –
74 | CCC(=O)N(CC(=O)Nc1sc(C)c(C)c1C(N)=O)C1CCCC1 | – | active: 13 µM
75 | Cc1ccc(Nc2ncnc3sc(C)c(C)c23)cc1C | – | inconclusive [inhibitor, single point]
76 | Cc1ccc(C(C)C)c(OCCNCCc2ccccc2)c1 | – | active: 23.1 µM
